Measured values published in publication PMC4336329 (PLoS ONE, 2015).
Hit rate of the full screen: of about 310,000 compounds, about 2,200 (0.71%) showed an effect of 50% or more. Effects have a minus sign here. The list shows a part of the results.

biological target: human ether-à-go-go-related gene (hERG) potassium channel (human, UniProt Q12809); test: primary screen, population patch clamp on CHO cells stably expressing hERG
Sequence (Q12809 whole entry, looked up): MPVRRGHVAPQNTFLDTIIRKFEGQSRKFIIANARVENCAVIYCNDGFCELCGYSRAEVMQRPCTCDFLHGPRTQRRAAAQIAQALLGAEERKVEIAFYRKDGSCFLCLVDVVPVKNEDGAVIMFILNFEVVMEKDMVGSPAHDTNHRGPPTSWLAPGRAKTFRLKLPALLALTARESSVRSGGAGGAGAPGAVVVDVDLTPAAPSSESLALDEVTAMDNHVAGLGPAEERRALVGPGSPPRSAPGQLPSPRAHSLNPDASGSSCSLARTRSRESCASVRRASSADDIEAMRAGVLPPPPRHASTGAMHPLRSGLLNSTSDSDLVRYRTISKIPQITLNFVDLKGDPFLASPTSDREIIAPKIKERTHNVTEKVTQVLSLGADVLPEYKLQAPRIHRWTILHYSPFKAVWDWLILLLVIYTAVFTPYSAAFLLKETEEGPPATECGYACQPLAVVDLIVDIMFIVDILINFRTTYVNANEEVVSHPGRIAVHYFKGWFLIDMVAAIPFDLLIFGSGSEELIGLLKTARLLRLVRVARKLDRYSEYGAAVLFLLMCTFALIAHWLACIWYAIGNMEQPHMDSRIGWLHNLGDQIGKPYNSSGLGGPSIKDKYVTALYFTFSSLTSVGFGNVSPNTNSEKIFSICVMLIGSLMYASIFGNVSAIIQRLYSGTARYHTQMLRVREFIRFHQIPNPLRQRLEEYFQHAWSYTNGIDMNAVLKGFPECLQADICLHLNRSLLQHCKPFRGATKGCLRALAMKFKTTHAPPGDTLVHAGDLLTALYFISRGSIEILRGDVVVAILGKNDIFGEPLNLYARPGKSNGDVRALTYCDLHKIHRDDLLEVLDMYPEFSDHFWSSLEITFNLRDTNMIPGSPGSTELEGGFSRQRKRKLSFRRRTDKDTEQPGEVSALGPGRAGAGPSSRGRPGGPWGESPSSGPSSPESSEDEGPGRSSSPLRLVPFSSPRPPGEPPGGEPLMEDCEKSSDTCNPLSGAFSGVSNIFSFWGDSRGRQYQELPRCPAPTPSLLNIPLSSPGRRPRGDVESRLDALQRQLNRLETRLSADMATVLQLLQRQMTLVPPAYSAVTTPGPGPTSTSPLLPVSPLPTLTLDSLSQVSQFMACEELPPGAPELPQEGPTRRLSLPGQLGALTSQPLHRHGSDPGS

Row | SMILES | hERG current change (%, negative = inhibition) at 1uM [%]
1 | NC(=O)c1cc2ccc(O)cc2oc1=NCc1ccccc1 | -7.76
2 | CC(C)(C)c1ccc(Oc2ccc(N)cc2)cc1 | 8.6
3 | COc1ccc(CCNC(=O)CCCCCn2c(SCC(N)=O)nc3cc4c(cc3c2=O)OCO4)cc1OC | 6.21
4 | CN1CSC2=C(C#N)C(c3cccc(OCc4ccccc4)c3)CC(=O)N2C1 (centres unmarked) | 4.22
5 | CCOc1ccc(NC(=O)CSc2ncn[nH]2)c([N+](=O)[O-])c1 | -2.08
6 | CCc1nnc(NS(=O)(=O)c2ccc(N/C=C/C(=O)c3ccc(OC)cc3)cc2)s1 | 11.3
7 | Cc1ccc(NC(=O)C2OCCc3ccccc32)cc1C (centres unmarked) | 8.56
8 | CC1CCCN(S(=O)(=O)c2ccc(NC(=O)Cc3ccc(S(=O)(=O)N4CCOCC4)s3)cc2)C1 (centres unmarked) | 6.62
9 | Cn1cc([N+](=O)[O-])c(C(=O)Nc2sc3c(c2C#N)CCC3)n1 | 11.2
10 | COc1ccccc1C(=O)Nc1ccc(C(=O)N2CCCCC2)cc1 | 7.81
11 | C=CCNC(=O)C(=O)Nc1ccc2c(c1)N(S(=O)(=O)c1cccs1)CCC2 | 10.8
12 | COc1ccc(C2c3c(nc(C)[nH]c3=O)Oc3c2c(=O)oc2ccccc32)cc1 (centres unmarked) | 12.7
13 | CCOc1ccc(NC(=O)C2CCC(CNc3c(N4CCC(C)CC4)c(=O)c3=O)CC2)cc1 (centres unmarked) | 11.8
14 | CCOc1cccc(C(=O)N(Cc2ccc(F)cc2)C2CCS(=O)(=O)C2)c1 (centres unmarked) | -10
15 | CCOc1ccc(S(=O)(=O)N(CC)CC(=O)N2CCCC2)cc1 | 4.47
16 | CN1CCN(NC(=O)CN(C)S(=O)(=O)c2cc(Cl)ccc2Cl)CC1 | 6.96
17 | CC1CCCCC1NC(=O)C(C)N1C(=O)c2ccccc2C1=O (centres unmarked) | 5.16
18 | Cc1noc(C)c1S(=O)(=O)N(CC(=O)NCc1ccc(F)cc1)c1ccc(C(C)C)cc1 | 15.5
19 | Cc1ccc(N(CC(=O)Nc2cc(C)cc(C)c2)S(=O)(=O)c2c(C)noc2C)cc1 | 11.6
20 | CC(=O)Nc1ccc(N2CCN(Cc3ccccc3F)CC2)cc1 | -3.49
21 | COc1cccc(C(=O)NCCS(=O)(=O)N2CCCCCC2)c1 | 10.1
22 | Cc1c(NC(=S)NC(=O)c2cccc(Br)c2)c(=O)n(-c2ccccc2)n1C | 10.4
23 | CCOc1cccc2sc(NC(=O)c3ccc(Br)s3)nc12 | 11.3
24 | CCc1noc(C)c1C(=O)OC(C)C(=O)NCc1ccc(OC)cc1 (centres unmarked) | -3.58
25 | CCN(CC)c1nc2ccccc2nc1C(C#N)C(=O)NCCc1ccccc1 (centres unmarked) | -0.217
26 | CN(C)C(C)(C)C#CC(O)(c1ccccc1)c1ccccc1 | 11.5
27 | CS(=O)(=O)c1ccccc1C(=O)Nc1cccc2ncccc12 | 15

Row | SMILES | hERG current change (%, negative = inhibition) at 1uM [%]
28 | O=C1c2ccccc2-c2c1cccc2C(=O)N1CCN(C(=O)c2ccco2)CC1 | -21.3
29 | COc1cc(OC)cc(-c2nc3ccccc3c(=O)n2OC(=O)c2ccc(Br)cc2)c1 | 6.96
30 | COc1ccccc1N1CCN(C(=O)CSc2nnc3c4ccccc4nc(Cc4ccccc4)n23)CC1 | -1.26
31 | Cl.NC(=O)c1c(NC(=O)C2COc3ccccc3O2)sc2c1CCN(Cc1ccccc1)C2 (centres unmarked) | 15
32 | COc1ccc(C)cc1NC(=O)c1ccc2c(O)c(S(=O)(=O)c3ccccc3)c(=O)[nH]c2c1 | 12.1
33 | Cc1c(C(c2cccc(O)c2)c2c(C)n(C)n(-c3ccccc3)c2=O)c(=O)n(-c2ccccc2)n1C | 13.9
34 | CC(=O)Nc1ccc(S(=O)(=O)N2CCC(C(=O)O)(c3ccccc3)CC2)cc1 | 12.4
35 | O=S(=O)(NCC(c1ccco1)N1CCN(c2ccc(F)cc2)CC1)c1ccc(F)cc1 (centres unmarked) | 6.44
36 | COc1ccc(Nc2ccc([N+](=O)[O-])cc2[N+](=O)[O-])cc1 | -2.84
37 | COc1ccccc1CNC(=O)C(=O)NCC1OCCCN1S(=O)(=O)c1ccc(F)cc1C (centres unmarked) | 16.4
38 | Cc1c(C(=O)O)cc(C(C)(C)C)n1CCSCCO | 10.4
39 | COC(=O)c1c(NC(=O)CSc2nnc(-c3ccco3)n2Cc2ccccc2)sc(C)c1C | 12.6
40 | CC(=O)O.NCC(c1ccco1)c1c[nH]c2ccccc12 (centres unmarked) | 12.2
41 | COc1ccc(N2C(=O)/C(=C\c3ccco3)N=C2SCC(=O)N(C(C)C)C(C)C)cc1Cl | 20.1
42 | Cc1ccc(-n2nc(C)c(/C=N/NC(=O)c3cccnc3)c2Cl)cc1 | 15.8
43 | O=C(N/N=C1/CC(c2ccccc2)Oc2ccccc21)C1CC1 (centres unmarked) | 5.76
44 | CCOc1ccc(-n2c(COc3ccccc3)nnc2SCC(N)=O)cc1 | 12.9
45 | Cc1ccc(NC(=O)CCNC(=O)c2ccc([N+](=O)[O-])cc2)cc1S(=O)(=O)N1CCOCC1 | 6.47
46 | COc1ccc(CCNC(=O)c2ccc(-c3ccc([N+](=O)[O-])cc3)o2)cc1OC | 1.04
47 | CCC(Sc1nc2ccccc2s1)C(=O)Nc1cc(C)on1 (centres unmarked) | 11
48 | Oc1ccccc1C1CCCCC1c1ccccc1 (centres unmarked) | 14.8
49 | S=C(NCCOCCOCCNC(=S)Nc1ccccc1)Nc1ccccc1 | 1.27
50 | Nc1ccc(C2(c3ccc(N)cc3)CCCCC2)cc1 | 7.81
51 | CCOC(=O)c1c(S(=O)(=O)Nc2cccc(-c3ccno3)c2)c(C)n(C)c1C | 6.92
52 | COc1ccc(C(=O)NCc2cnn(C)c2)cc1OC1CCN(C(C)C)CC1 | 14.3
53 | O=S(=O)(c1cccc(C(F)(F)F)c1)c1ccc(O)cn1 | 0.539
